Measurements published in PubChem BioAssay AID504332 (National Center for Advancing Translational Sciences (NCATS), 2011).
“And” between values parts separate entries of the source, which are not always exact repeats. Equal entries are not always repeated. The whole screen tested about 350,000 compounds, of which about 31,000 (8.9%) were called active. This list was built around the results that the source calls inconclusive (neither active nor inactive); the mix of calls is not that of the screen. Calls come from the whole dose curve; as a rule, active = well fitted inhibition curve with a large enough effect; inconclusive = small, poorly fitted or top-dose-only effect; inactive = no such curve, though single readings can be large or run the other way. Potencies beside an inconclusive call are fits to weak or partial responses and may not hold up.

What follows are compounds tested against Histone-lysine N-methyltransferase EHMT2 (Homo sapiens) (UniProt Q96KQ7) (assay: qHTS Assay for Inhibitors of Histone Lysine Methyltransferase G9a). Details: G9a H3K9 monomethylation, AlphaScreen, 2 h; activity, negative = inhibition: at 59 µM (top of the series) unless noted.
Chain of UniProt Q96KQ7 (Q96KQ7 whole entry, looked up): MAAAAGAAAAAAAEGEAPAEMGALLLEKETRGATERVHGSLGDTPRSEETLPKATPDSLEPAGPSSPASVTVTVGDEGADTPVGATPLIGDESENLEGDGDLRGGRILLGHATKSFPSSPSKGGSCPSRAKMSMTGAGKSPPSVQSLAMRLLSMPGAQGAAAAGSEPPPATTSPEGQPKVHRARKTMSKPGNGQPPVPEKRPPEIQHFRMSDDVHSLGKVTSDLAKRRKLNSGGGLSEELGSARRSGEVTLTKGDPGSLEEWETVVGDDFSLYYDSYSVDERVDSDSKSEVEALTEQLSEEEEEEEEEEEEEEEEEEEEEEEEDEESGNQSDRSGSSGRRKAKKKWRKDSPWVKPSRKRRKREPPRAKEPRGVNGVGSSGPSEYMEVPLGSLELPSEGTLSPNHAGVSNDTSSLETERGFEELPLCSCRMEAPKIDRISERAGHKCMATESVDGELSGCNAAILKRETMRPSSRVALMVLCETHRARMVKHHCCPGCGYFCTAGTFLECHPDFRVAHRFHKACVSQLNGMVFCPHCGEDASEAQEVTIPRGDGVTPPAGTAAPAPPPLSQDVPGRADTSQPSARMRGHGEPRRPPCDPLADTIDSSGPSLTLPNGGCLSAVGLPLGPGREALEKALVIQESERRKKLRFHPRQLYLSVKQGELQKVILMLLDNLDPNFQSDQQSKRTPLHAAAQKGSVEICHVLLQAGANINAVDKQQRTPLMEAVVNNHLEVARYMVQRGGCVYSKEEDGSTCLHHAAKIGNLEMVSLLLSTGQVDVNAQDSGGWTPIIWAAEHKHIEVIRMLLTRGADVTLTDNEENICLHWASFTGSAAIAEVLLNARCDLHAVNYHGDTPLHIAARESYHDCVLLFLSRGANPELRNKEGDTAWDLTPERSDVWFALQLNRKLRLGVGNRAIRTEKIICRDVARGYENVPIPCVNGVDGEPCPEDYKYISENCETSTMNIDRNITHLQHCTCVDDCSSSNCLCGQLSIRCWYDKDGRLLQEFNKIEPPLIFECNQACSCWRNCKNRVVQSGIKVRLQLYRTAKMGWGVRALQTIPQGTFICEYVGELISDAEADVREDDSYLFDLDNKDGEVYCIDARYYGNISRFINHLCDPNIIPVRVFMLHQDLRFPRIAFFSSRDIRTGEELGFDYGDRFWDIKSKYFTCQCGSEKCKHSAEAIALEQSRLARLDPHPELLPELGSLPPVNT
Summary of the method: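 Chemiluminescent proximity detection of H3K9 monomethylation, read after 10 min bead incubation in the dark. Reaction: 20 nM G9a, 500 nM biotin-H3K9 peptide, 20 uM SAM cofactor, 2 h, room temperature, following 15 min enzyme-compound preincubation.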
% is set by controls: 0 for no effect and ±100 for the full control effect; potency is the fitted concentration of half-maximal effect; tags give direction and shape of the fitted curve.
Note: nearly all actives have a fitted effect of over 75% in size.

With `Cc1cc(C)c(C(=O)N2CCCC(N3CCN(c4cccc(C(F)(F)F)c4)CC3)C2)o1` (stereo not drawn) as the compound, how does the Potency read?
The Potency was inconclusive: 79.4 µM [inhibitor, single point].

Which Potency does the source give for `Cc1cccc(NC(=O)N2C3CCCC2CC(NC(=O)C(C)(C)C)C3)c1` (stereo not drawn) here?
Its Potency is “inactive”.

For `COc1ccc(OCC(O)CNS(=O)(=O)c2cccc(Cl)c2)cc1` (stereo not drawn), which Potency is on record?
The Potency was “inactive”.

Which Potency does the source give for `O=c1cc(O)cc(/C=C/c2ccc(O)c(O)c2)o1` here?
Its Potency is active: 10 µM and active: 3.98 µM.

Which Potency does the source give for `N#C/C(=C\c1cccnc1)C(=O)Nc1cccc(Cl)c1` here?
The Potency was “inactive”.

`Cc1nc2nc(NCc3ccc(Cl)cc3)[nH]n2c(=O)c1Cc1ccccc1` was tested. Which Potency did it give?
Its Potency is inconclusive: 6.31 µM [inhibitor, partial curve].

How did the Potency turn out when `Cc1nnc(SCCN2CCOCC2)n1-c1cccc(Cl)c1` was run?
The Potency was inconclusive: 1.78 µM [inhibitor, full curve, poor fit].

With `CCn1c(CNC(=O)C23CC4CC(CC(C4)C2)C3)nnc1SCC(=O)Nc1nnc(C)s1` as the compound, how does the Potency read?
The Potency was “inactive”.

For `CC(OC(=O)c1ccccc1NCCO)C(=O)NC1CCCCC1C` (stereo not drawn), which Potency is on record?
The Potency was inconclusive: 89.1 µM [inhibitor, partial curve, poor fit].

With `Cc1nc(SCC(=O)c2c[nH]c3ccccc23)n[nH]1` as the compound, how does the Potency read?
Its Potency is inconclusive: 31.6 µM [inhibitor, partial curve, poor fit].

Which Potency does the source give for `CC(=O)Nc1cccc(OCC(=O)Nc2cccc(S(=O)(=O)N3CCCC3)c2)c1` here?
Its Potency is inconclusive: 35.5 µM [inhibitor, partial curve, poor fit].

For `COc1ccc(C2=CC(c3ccccc3Cl)n3nc(-c4ccc(Cl)cc4)nc3N2)cc1` (stereo not drawn), which Potency is on record?
Its Potency is inconclusive: 1.78 µM [inhibitor, full curve, poor fit].

With `C=CCn1c(-c2ccc(Cl)cc2)cnc1SC(C)C(=O)NC(N)=O` (stereo not drawn) as the compound, how does the Potency read?
The Potency was inconclusive: 35.5 µM [inhibitor, single point].

Which Potency does the source give for `CCOC(=O)C1=C(COc2ccccc2)NC(=O)NC1c1cccc([N+](=O)[O-])c1` (stereo not drawn) here?
The Potency was inconclusive: 56.2 µM [inhibitor, single point].

For `Cc1nc(C)c(C(=O)NNS(=O)(=O)c2ccc3ccccc3c2)s1`, which Potency is on record?
The Potency was inconclusive: 25.1 µM [inhibitor, single point].

Which Potency does the source give for `O=C(NCCCn1ccnc1)C(F)(F)C(F)(F)C(=O)NCCCn1ccnc1` here?
The Potency was active: 14.1 µM.

`COc1cccc(CN(C)C(=O)c2cc(-c3ccc(F)cc3)nc3ccccc23)c1` was tested. Which Potency did it give?
Its Potency is inconclusive: 8.91 µM [inhibitor, full curve, poor fit].

Which Potency does the source give for `O=C1CC(/C=C/c2ccncc2)=Nc2ccccc2N1` here?
Its Potency is active: 39.8 µM.

With `O=C(c1ccc2nccnc2c1)N1CCCC(N2CCN(c3ccc(F)cc3)CC2)C1` (stereo not drawn) as the compound, how does the Potency read?
The Potency was “inactive”.

With `Cc1ccccc1C(=O)N1CCC(C(=O)Nc2cccc(S(=O)(=O)N3CCCCC3)c2)CC1` as the compound, how does the Potency read?
The Potency was inconclusive: 31.6 µM [inhibitor, single point].

How did the Potency turn out when `Cc1ccc(CNC(=O)c2ccc3c(=O)n(CCCN4CCCC4=O)c(=S)[nH]c3c2)cc1` was run?
Its Potency is inconclusive: 89.1 µM [inhibitor, single point].

How did the Potency turn out when `CC1CCc2c(sc(NC(=O)C3c4ccccc4Oc4ccccc43)c2C#N)C1` (stereo not drawn) was run?
The Potency was “inactive”.

For `CN(C)c1ccc(/C=N/NC(=O)c2ccc(-n3cnnn3)cc2)cc1`, which Potency is on record?
The Potency was inconclusive: 7.08 µM [inhibitor, single point].

For `O=C(CN1CCN(c2cnn(-c3ccccc3)c(=O)c2Cl)CC1)NC1CCS(=O)(=O)C1` (stereo not drawn), which Potency is on record?
Its Potency is active: 44.7 µM.

For `Cc1nc(SCC(=O)c2ccc(Cl)s2)c2oc3ccccc3c2n1`, which Potency is on record?
The Potency was inconclusive: 1.78 µM [inhibitor, partial curve, poor fit].

`O=C(Nc1cccc(S(=O)(=O)N2CCCCC2)c1)c1ccc(S(=O)(=O)C(F)F)cc1` was tested. Which Potency did it give?
Its Potency is inconclusive: 50.1 µM [inhibitor, partial curve, poor fit].

`COc1cccc(CN2CCN(Cc3ccc4c(NC(C)=O)cccc4n3)CC2CCO)c1` (stereo not drawn) was tested. Which Potency did it give?
The Potency was active: 50.1 µM.

`CCOc1ccc(NC(=O)COC(=O)C2CCC(=O)N2)c([N+](=O)[O-])c1` (stereo not drawn) was tested. Which Potency did it give?
The Potency was inconclusive: 89.1 µM [inhibitor, single point].

For `c1ccc(CCc2nn3c(Cc4ccccc4)nnc3s2)cc1`, which Potency is on record?
Its Potency is inconclusive: 2.82 µM [inhibitor, partial curve, poor fit].

How did the Potency turn out when `COc1ccc(N2CCN(S(=O)(=O)CCNC(=O)COc3ccccc3OC)CC2)cc1` was run?
The Potency was inconclusive: 63.1 µM [inhibitor, partial curve, poor fit].

Which Potency does the source give for `Cc1ccccc1OCCNC(=O)CSc1ccc(C(F)(F)F)cc1[N+](=O)[O-]` here?
The Potency was inconclusive: 89.1 µM [inhibitor, single point].

`C=CCOC(=O)C1=C(C)OC(N)=C(C#N)C1c1ccc2c(c1)OCO2` (stereo not drawn) was tested. Which activity, negative = inhibition did it give?
The activity, negative = inhibition was inconclusive: -66.2% [inhibitor] [at 12.7 µM].

Which Potency does the source give for `Cc1ccc(Cl)cc1NC(=O)C(C)n1nc(-c2ccccc2)ccc1=O` (stereo not drawn) here?
The Potency was “inactive”.

How did the activity, negative = inhibition turn out when `CC(=O)Oc1c(C)c2c3c(c1OC(C)=O)[C@@H](C)CC[C@@H]3[C@@H](C)C[C@H]2C=C(C)C` was run?
Its activity, negative = inhibition is inactive: 3.32% [at 0.501 µM].

Which Potency does the source give for `CN1CCN(CC#CCC(O)(c2ccccc2)C2CCCC2)CC1` (stereo not drawn) here?
Its Potency is active: 8.91 µM.

`CCOCc1nnc(NC(=O)C2CC(=O)N(C3CCCC3)C2)s1` (stereo not drawn) was tested. Which Potency did it give?
Its Potency is inconclusive: 79.4 µM [inhibitor, single point].

For `Cc1ccc(-n2ncc3c(NCCC4=CCCCC4)ncnc32)cc1`, which Potency is on record?
The Potency was inconclusive: 39.8 µM [inhibitor, single point].

`COC(=O)NCC(c1cccnc1)N1CCN(c2ccc(F)cc2)CC1` (stereo not drawn) was tested. Which Potency did it give?
Its Potency is inconclusive: 7.08 µM [inhibitor, partial curve, poor fit].

For `Cc1ccc(S(=O)(=O)N2CCN(CCc3ccccc3)CC2)c(C)c1`, which Potency is on record?
Its Potency is active: 44.7 µM.

With `Oc1c(C(c2ccccc2F)N2CCN(Cc3ccccc3)CC2)sc2nc(-c3ccco3)nn12` (stereo not drawn) as the compound, how does the Potency read?
The Potency was “inactive”.

For `Cc1c(C(=O)N2CCC(c3nc4ccccc4s3)CC2)oc2ccc(Cl)cc12`, which Potency is on record?
The Potency was “inactive”.

Which Potency does the source give for `COCCN(C(=O)c1ccc(OCC(C)C)cc1)c1c(N)n(Cc2ccccc2)c(=O)[nH]c1=O` here?
Its Potency is active: 35.5 µM.

With `COc1ccc(-n2c(Cc3cccs3)nnc2SCC(=O)Nc2ccc3c(c2)OCCO3)cc1` as the compound, how does the Potency read?
The Potency was inconclusive: 22.4 µM [inhibitor, partial curve, poor fit].
